# The campaign covered roughly 360,000 compounds. About 17,000 (4.7%) were called active. Inconclusive results, whose numbers are uncertain, are shown with a selection of clear calls. Rule as the data show it: active = activity change below about -50%; inconclusive = mostly about -30% to -49%; inactive = weaker than that. More than one record can exist for a structure, and the calls need not agree.
# Experiment: qHTS for Inhibitors of Inflammasome Signaling: IL-1-beta AlphaLISA Primary Screen
# Conditions: THP-1 LPS/ATP IL-1B secretion, 16 h; at 57.5 µM, hits give low values
# Method in brief: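 Secreted IL-1B measured by AlphaLISA bead assay after 16 h compound exposure of THP-1 cells; compounds (final up to 57.5 uM) added 1 h before LPS (250 ng/mL) and ATP (1.25 mM) stimulation; lower signal means less secretion.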
# % is scaled to controls: 0 for no effect and ±100 for the full control effect.
row,Compound,activity change
1,O=C(NC1CCCCC1)C(=O)c1c[nH]c2ccccc12,inconclusive: -31.4%
2,COc1ccc(OC)c(C(=O)COC(=O)COc2ccccc2)c1,inconclusive: -45.4%
3,O=C(NC(c1ccccc1)c1c(O)ccc2ccccc12)c1ccccc1Cl (configuration not stated),inconclusive: -33%
4,CCC(=O)N1Cc2cc(C(=O)Nc3nccs3)nc(-c3cccc(-c4ccccc4OC)c3)c2[C@H]1CCO,inconclusive: -33%
5,COc1cccc(Nc2nc(CN3CCOCC3)nc3sc4c(c23)CCCC4)c1,inconclusive: -40.8%
6,CC(=O)Nc1ccc(NC(=O)CSc2nnc3ccc(-c4ccc(F)cc4)nn23)cc1,inactive: 5.56%
7,Cc1ccc2[nH]c(C(=O)N3CCCCC3)cc2c1,inconclusive: -34.9%
8,COc1ccccc1NC(=O)CSC(N)=O,inconclusive: -45.8%
9,C[C@H](CO)N1C[C@H](C)[C@@H](CN(C)C(=O)Nc2ccc(C(F)(F)F)cc2)Oc2c(NC(=O)Cc3ccccc3)cccc2C1=O,inconclusive: -34.2%
10,COc1ccc(OC)c(Nc2nc(-c3sc(N)nc3C)cs2)c1,inconclusive: -39.5%
11,Cc1ccc(NS(=O)(=O)c2ccc(-c3coc(C)n3)cc2)c(Br)c1,inactive: 43.2%
12,CCN1CCN(Cc2ccc(NC(=O)c3ccc(C)c(NC(=O)N4CCNC4=O)c3)cc2C(F)(F)F)CC1,inconclusive: -41.3%
13,O=C(NCCC1=CCCCC1)c1ccc(Cl)c([N+](=O)[O-])c1,inconclusive: -36.3%
14,COc1cc(C(=O)N2CCN(S(=O)(=O)c3cc(C)ccc3C)CC2)ccc1OCC(=O)N1CCOCC1,inconclusive: -42.4%
15,Cc1nn(-c2ccccc2)c(NC(=O)c2cccs2)c(-c2ccccc2Cl)c1=O,inactive: -15.9%
16,CCc1oc2ccccc2c1C(=O)CCN1CCCCC1,inconclusive: -31.4%
17,O=C(NC(=O)c1cc([N+](=O)[O-])ccc1Cl)C1=C(N2CCCC2)COC1=O,inactive: -22.8%
18,COc1ccccc1NC(=O)NC1CCCCCCC1,inconclusive: -35.1%
19,CCc1nc2ccc(C(=O)NCCOc3ccc(OC)cc3)cn2c1N(CCN(C)C)CC1CC1,inconclusive: -34.7%
20,CC(=O)c1nn(-c2ccc(C(F)(F)F)cc2)c(=O)[nH]c1=O,inactive: 16%
21,O=C(Cc1c(F)cccc1Cl)NC1CCN(Cc2ccccc2)CC1,inactive: -26.1%
22,CCn1ccnc1CN(C)Cc1nc(Cc2cccc(C(F)(F)F)c2)no1,inactive: 19.6%

row,Compound,activity change
1,COc1ccc(NCC(=O)N/N=C/C=C/c2ccccc2[N+](=O)[O-])cc1,inconclusive: -30.3%
2,COc1ccc(OC)c(NC(=O)c2cccc(C)c2[N+](=O)[O-])c1,inconclusive: -33.5%
3,Cc1ccc(NC(=O)CSCC(=O)NCCc2ccccn2)c(C)c1,inactive: 22.4%
4,O=C(NC(c1ccc2ccccc2n1)c1cccs1)C1CCN(Cc2cccc(C(F)(F)F)c2)CC1 (configuration not stated),active: -66.1%
5,CCOc1cc(CNCc2ccncc2)cc(Br)c1OCc1ccc(F)cc1,active: -84.1%
6,Cc1cc(C)n(-c2nc(SCCN(C)C)c3c4c(sc3n2)COC(C)(C)C4)n1,active: -60%
7,CCc1ccc(C(=O)C(C)OC(=O)c2nc3nc(C)cc(C)n3n2)cc1 (configuration not stated),inactive: -7.79%
8,CCC(C)NS(=O)(=O)c1ccc(OCC(=O)N2CCCCC2)cc1 (configuration not stated),inconclusive: -38.9%
9,O=C(NC(=S)Nc1ccccc1N1CCCC1)c1ccc(-c2cccc([N+](=O)[O-])c2)o1,inconclusive: -32.6%
10,COc1cc(OC)cc(OC(=O)c2cccc(S(=O)(=O)N3CCN(C)CC3)c2)c1,inconclusive: -45.1%
11,CN(C(=O)c1ccc(NC(=O)Cc2ccc(NC(=O)C3CCN(C(=O)C4CCCCC4)CC3)cc2)cc1)C1CC1,active: -61.4%
12,CCn1c(CSCc2ccc(F)cc2)nnc1SCC(=O)N1CCN(c2ccccc2)CC1,inconclusive: -49%
13,CCCn1c(COc2ccccc2)nc2ccccc21,inconclusive: -46.6%
14,CCOc1ccc(C(NC(=O)/C=C/c2ccco2)c2ccc(OC)c(OC)c2)cc1 (configuration not stated),inconclusive: -32.3%
15,COc1ccc(C(C(=O)NC2CCCC2)N(C(=O)c2ccoc2C)c2cc(C)cc(C)c2)cc1 (configuration not stated),inconclusive: -48.7%
16,ClCc1nnc(-c2ccccc2)o1,active: -87.8%
17,CCOc1cccc2cc(C(=O)NCc3ccc(C)cc3)c(=N)oc12,inconclusive: -42.2%
18,Cc1ccc(O)c(C2=Nc3ccccc3N=C(c3ccco3)C2)c1,inactive: 14.3%
19,O=C(CN1CCC(O)(c2cccc(C(F)(F)F)c2)CC1)NCCc1ccccc1,inconclusive: -34.5%
20,O=C(COc1ccc(Br)cc1)NCCCNC(=O)c1ccncc1,inactive: -10.6%
21,COc1cc(C(=O)N/N=C/c2sc(N3CCOCC3)nc2-c2ccccc2)cc(OC)c1OC,inactive: -6.47%
22,CC1=CC(=C2C(=O)c3ccccc3C2=O)C=C(C)N1Cc1ccco1,active: -62%

row,Compound,activity change
1,COc1ccc(C(OCC(O)CN(C)C2CCCCC2)c2ccc(OC)cc2)cc1 (configuration not stated),active: -70.8%
2,CS(=O)(=O)c1ccccc1COC(=O)Nc1ccc(Cl)cc1,inconclusive: -49.2%
3,Cc1nn(Cc2ccccc2)c(Cl)c1C(=O)OCC(=O)NC(=O)NC12CC3CC(CC(C3)C1)C2,inconclusive: -31.7%
4,CCOc1ccc(NC(=O)C(=O)N/N=C\c2ccc(CNS(=O)(=O)c3ccccc3)o2)cc1,inactive: 79.7%
5,O=C(CSc1nc(=O)n(CCCN2CCOCC2)c2c1CCCC2)Nc1cccc(F)c1,inconclusive: -35.1%
6,CCOc1ccccc1/C=C(/NC(=O)c1ccccc1)C(=O)NC(C)c1ccccc1 (configuration not stated),inactive: -23.9%
7,Cc1ccc(NNC(=O)c2cc(C(C)(C)C)nn2Cc2ccccc2)cc1,inconclusive: -37.8%
8,O=c1c2ccccc2nc2n1C(CSCc1cccc(C(F)(F)F)c1)CS2 (configuration not stated),inconclusive: -40.3%
9,Cc1ccc2[nH]c(=O)c3cc(C(=O)N(C)c4ccccc4C)sc3c2c1,inconclusive: -30.9%
10,CC(C)C(=O)NC(c1ccccc1Cl)c1c(O)ccc2ccccc12 (configuration not stated),inconclusive: -41.4%
11,CC(C)C[C@H]1CNC(=O)C(=O)N1CC1CCN(CCc2ccc(-c3ccccc3)cc2)CC1,active: -67.1%
12,Cc1cc2c(=O)[nH]c(N)nc2[nH]1,inactive: -13.3%
13,c1ccc2nc(-c3nc4ccccc4o3)ccc2c1,inactive: -3.31%
14,N#Cc1cccc2c1-c1ccccc1/C2=N/NC(N)=O,inconclusive: -39.3%
15,CC(C)C[C@H]1CN(CCCC[C@H]2CNC(=O)C(=O)N2CC2CCCCC2)C(=O)C(=O)N1Cc1ccccc1,active: -72.4%
16,CC(=O)C1=C(C)NC(C)=C(C(C)=O)C1c1cn(-c2ccccc2)nc1-c1cccs1,inconclusive: -48.9%
17,Cc1cc(=O)oc2cc(OCC(=O)N3CCCc4ccccc43)ccc12,inconclusive: -42.8%
18,COc1ccc(-c2c[n+](CC(=O)c3ccccc3)c3n2CCCCC3)cc1,inconclusive: -40.6%
19,CCCN(CCC)Cc1c(C(=O)N/N=C/c2c[nH]c3ccccc23)nnn1-c1nonc1N,inconclusive: -31.6%
20,CC(C)c1ccc(N=c2c([N+](=O)[O-])nn(-c3ccc4c(c3)OCCO4)n2O)cc1,inconclusive: -35.5%
21,Cc1c(C(=O)NCCSCc2cccc(C(F)(F)F)c2)cnn1-c1ccc(Cl)cc1,active: -57%
22,O=C(N/N=C/c1ccc(Cl)cc1Cl)c1cccc(F)c1,inconclusive: -48.3%

row,Compound,activity change
1,Cc1cc(C)n2nc3nc(N4CCCCC4)nc(-c4ccco4)c3c2n1,inactive: 7.36%
2,CCCCn1c(=O)c(-c2ccccc2)c(O)c2ccccc21,inactive: 59%
3,Cc1c(C(=O)NCc2cccs2)sc(=O)n1Cc1ccc(S(C)(=O)=O)cc1,inconclusive: -40.6%
4,CN(C)c1ccc(CNc2ncc(Br)cc2Br)cc1,inconclusive: -34.8%
5,COc1ccc(CN(C(=O)c2cccs2)c2ccccc2)cc1,inconclusive: -39.4%
6,CCOc1ccc(NC2=C(Cl)C(=O)N(Cc3ccccc3)C2=O)cc1,inconclusive: -45%
7,Cc1sc(=NC(=O)c2ccco2)n(C)c1-c1ccc(F)cc1,inconclusive: -40.3%
8,O=C(COc1ccc2c(c1)CCC2)NCc1cccc(Cl)c1,inconclusive: -49.2%
9,CCCCNC(=O)c1sc(=S)n(-c2ccccc2OC)c1N,inactive: -16.6%
10,CSCCC1NC(=O)N(CC(=O)N2N=C(c3ccc(Cl)cc3)CC2c2ccco2)C1=O (configuration not stated),inconclusive: -34.1%
11,CCCCC(=O)Nc1cccc(-c2csc(-c3ccccc3)n2)c1,active: -79.1%
12,CCOP(=O)(OCC)/C(=N/OC(=O)c1ccccc1C)C(N)=O,active: -103%
13,NS(=O)(=O)Oc1ccccc1,inactive: 16.4%
14,Cc1cc(C(=O)Nc2ccc(F)c(Cl)c2)on1,inactive: -4.5%
15,Cc1cc(N2CCC(C)CC2)nc(SCC(=O)c2ccccc2)n1,active: -61.7%
16,Cc1c(Cl)cccc1Nc1nc(N)nc(CN2CCc3ccccc3C2)n1,inconclusive: -38.9%
17,CCOC(=O)c1cc2cc(OC)ccc2n1C1CCN(C)CC1,inconclusive: -38.4%
18,C=CCn1c(SCC(=O)Nc2cc(C)ccc2OC)nnc1-c1ccco1,inconclusive: -39.7%
19,COc1cc(C)ccc1Oc1ncnc(N)c1[N+](=O)[O-],inconclusive: -33.5%
20,O=C(Nc1ccc(OCC(=O)N2CCOCC2)cc1)c1ccccc1F,inactive: 19.2%
21,O=C(Nc1cc(N2CCOCC2)ncn1)c1ccccc1,inconclusive: -31.9%
